Assay results taken from a collection of fitness landscapes (doi:10.1126/science.1257360).
This is one part of the list.

B1: PhoQ; a variant is named by its letters at X, in order, P23837 (parent)
chain: MKKLLRLFFPLSLRVRFLLATAAVVLVLSLAYGMVALIGYSVSFDKTTFRLLRGESNLFYTLAKWENNKLHVELPENIDKQSPTMTLIYDENGQLLWAQRDVPWLMKMIQPDWLKSNGFHEIEADVNDTSLLLSGDHSIQQQLQEVREDDDDAEMTHSVAVNVYPATSRMPKLTIVVVDTIPVELKSSYMVWSWFIYVLSANLLLVIPLLWVAAWWSLRPIEALAKEVRELEEHNRELLNPATTRELTSLVRNLNRLLKSERERYDKYRTTLTDLTHSLKTPLXXLQXXLRSLRSEKMSVSDAEPVMLEQISRISQQIGYYLHRASMRGGTLLSRELHPVAPLLDNLTSALNKVYQRKGVNISLDISPEISFVGEQNDFVEVMGNVLDNACKYCLEFVEISARQTDEHLYIVVEDDGPGIPLSKREVIFDRGQRVDTLRPGQGVGLAVAREITEQYEGKIVAGESMLGGARMEVIFGRQHSAPKDE

Variants of: B1
Test: enrichment ratio after two sorts for PhoP signalling (ratio (wild type AVST 3.29)); higher = more functional
Conditions: with PhoP (E. coli)
IRRS was tested, and the enrichment ratio was ≤ 0.25.
For DEMH, the enrichment ratio was ≤ 0.25.
In the case of REPC, the enrichment ratio is reported as ≤ 0.25.
In the case of GPVE, the enrichment ratio is reported as ≤ 0.25.
With FRGI the enrichment ratio was ≤ 0.25.
QCNI was tested, and the enrichment ratio was ≤ 0.25.
With GCNP the enrichment ratio was ≤ 0.25.
FTWW was tested, and the enrichment ratio was ≤ 0.25.
With WDAR the enrichment ratio was ≤ 0.25.
IIVK was tested, and the enrichment ratio was ≤ 0.25.
In the case of YALD, the enrichment ratio is reported as ≤ 0.25.
VHYY was tested, and the enrichment ratio was ≤ 0.25.
In the case of KYTT, the enrichment ratio is reported as ≤ 0.25.
With RSIY the enrichment ratio was ≤ 0.25.
QRAT was tested, and the enrichment ratio was ≤ 0.25.
With MTYR the enrichment ratio was ≤ 0.25.
MSML was tested, and the enrichment ratio was 14.3.
For QRNW, the enrichment ratio was ≤ 0.25.
ANIF was tested, and the enrichment ratio was ≤ 0.25.
In the case of RLEC, the enrichment ratio is reported as ≤ 0.25.
PKHN was tested, and the enrichment ratio was ≤ 0.25.
For ATDR, the enrichment ratio was ≤ 0.25.
For WVWG, the enrichment ratio was ≤ 0.25.
With LYPH the enrichment ratio was ≤ 0.25.
With TDKC the enrichment ratio was ≤ 0.25.
RHHW was tested, and the enrichment ratio was ≤ 0.25.
In the case of FCKQ, the enrichment ratio is reported as ≤ 0.25.
With NKRD the enrichment ratio was ≤ 0.25.
For TGNN, the enrichment ratio was 8.27.
For RHGP, the enrichment ratio was ≤ 0.25.
With GKAE the enrichment ratio was ≤ 0.25.
With GCFL the enrichment ratio was ≤ 0.25.
With HCYR the enrichment ratio was ≤ 0.25.
For SINM, the enrichment ratio was 1.07.
With RWHS the enrichment ratio was ≤ 0.25.
In the case of QVNQ, the enrichment ratio is reported as ≤ 0.25.
In the case of KHDW, the enrichment ratio is reported as ≤ 0.25.
RTDH was tested, and the enrichment ratio was ≤ 0.25.
With MQMF the enrichment ratio was ≤ 0.25.
With RDYH the enrichment ratio was ≤ 0.25.
In the case of KQWM, the enrichment ratio is reported as ≤ 0.25.
For QRVA, the enrichment ratio was ≤ 0.25.
For FHWM, the enrichment ratio was ≤ 0.25.
FSPI was tested, and the enrichment ratio was ≤ 0.25.
IDAV was tested, and the enrichment ratio was ≤ 0.25.
For MNGS, the enrichment ratio was ≤ 0.25.
ANWD was tested, and the enrichment ratio was ≤ 0.25.
VGCA was tested, and the enrichment ratio was ≤ 0.25.
YHHL was tested, and the enrichment ratio was ≤ 0.25.
For AWLH, the enrichment ratio was ≤ 0.25.
Variant YFVH has an enrichment ratio of 0.389.
With NESI the enrichment ratio was ≤ 0.25.
For SRKP, the enrichment ratio was ≤ 0.25.
For PCKP, the enrichment ratio was ≤ 0.25.
AEPM was tested, and the enrichment ratio was 0.861.
IWMA was tested, and the enrichment ratio was ≤ 0.25.
QELH was tested, and the enrichment ratio was ≤ 0.25.
NSCD was tested, and the enrichment ratio was ≤ 0.25.
RQFN was tested, and the enrichment ratio was ≤ 0.25.
For WHNY, the enrichment ratio was ≤ 0.25.
MQIK was tested, and the enrichment ratio was ≤ 0.25.
In the case of PYLN, the enrichment ratio is reported as ≤ 0.25.
With WSNR the enrichment ratio was ≤ 0.25.
HTSM was tested, and the enrichment ratio was ≤ 0.25.
GFDA was tested, and the enrichment ratio was ≤ 0.25.
With MGPP the enrichment ratio was ≤ 0.25.
With LVLS the enrichment ratio was ≤ 0.25.
WFII was tested, and the enrichment ratio was ≤ 0.25.
In the case of HHPY, the enrichment ratio is reported as ≤ 0.25.
TWNI was tested, and the enrichment ratio was ≤ 0.25.
MEWH was tested, and the enrichment ratio was 7.92.
EIYN was tested, and the enrichment ratio was ≤ 0.25.
With SEFW the enrichment ratio was ≤ 0.25.
With KNVW the enrichment ratio was ≤ 0.25.
Variant SKLH has an enrichment ratio of 3.7.
TSVV was tested, and the enrichment ratio was 3.8.
GHMI was tested, and the enrichment ratio was ≤ 0.25.
With EFRY the enrichment ratio was ≤ 0.25.
For MNYG, the enrichment ratio was ≤ 0.25.
For QIKA, the enrichment ratio was ≤ 0.25.
SMLS showed an enrichment ratio of 6.78.
For KDKS, the enrichment ratio was ≤ 0.25.
For NHTM, the enrichment ratio was ≤ 0.25.
For KRQT, the enrichment ratio was ≤ 0.25.
In the case of FAVP, the enrichment ratio is reported as ≤ 0.25.
With NAGV the enrichment ratio was ≤ 0.25.
Work on VILI yielded an enrichment ratio of 1.68.
DPLE was tested, and the enrichment ratio was ≤ 0.25.
With GNGW the enrichment ratio was ≤ 0.25.
QPSQ was tested, and the enrichment ratio was ≤ 0.25.
LCVL was tested, and the enrichment ratio was ≤ 0.25.
IDYE was tested, and the enrichment ratio was ≤ 0.25.
For DRHM, the enrichment ratio was ≤ 0.25.
In the case of GTGA, the enrichment ratio is reported as ≤ 0.25.
For DDVF, the enrichment ratio was ≤ 0.25.
HMIK was tested, and the enrichment ratio was ≤ 0.25.
With RFNR the enrichment ratio was ≤ 0.25.
With LSIY the enrichment ratio was ≤ 0.25.
Work on YSLF yielded an enrichment ratio of 3.76.
For KFFK, the enrichment ratio was ≤ 0.25.
For PFSW, the enrichment ratio was ≤ 0.25.
With LRQP the enrichment ratio was ≤ 0.25.
LKTA was tested, and the enrichment ratio was ≤ 0.25.
MRVL was tested, and the enrichment ratio was ≤ 0.25.
WMGL was tested, and the enrichment ratio was ≤ 0.25.
With KLEA the enrichment ratio was ≤ 0.25.
For MKMC, the enrichment ratio was ≤ 0.25.
DQFH was tested, and the enrichment ratio was ≤ 0.25.
In the case of HHDQ, the enrichment ratio is reported as ≤ 0.25.
With DRHF the enrichment ratio was ≤ 0.25.
EVHP was tested, and the enrichment ratio was ≤ 0.25.
In the case of TPKS, the enrichment ratio is reported as ≤ 0.25.
NNVE was tested, and the enrichment ratio was ≤ 0.25.
For VAIW, the enrichment ratio was ≤ 0.25.
With RDMF the enrichment ratio was ≤ 0.25.
In the case of PHDG, the enrichment ratio is reported as ≤ 0.25.
With RSLD the enrichment ratio was ≤ 0.25.
In the case of FSDF, the enrichment ratio is reported as ≤ 0.25.
QPRC was tested, and the enrichment ratio was ≤ 0.25.
In the case of VERS, the enrichment ratio is reported as ≤ 0.25.
In the case of GIHK, the enrichment ratio is reported as ≤ 0.25.
In the case of AKKR, the enrichment ratio is reported as ≤ 0.25.
With WIKK the enrichment ratio was ≤ 0.25.
PVPG was tested, and the enrichment ratio was ≤ 0.25.
In the case of GRTS, the enrichment ratio is reported as ≤ 0.25.
With RRDW the enrichment ratio was ≤ 0.25.
In the case of GEIK, the enrichment ratio is reported as ≤ 0.25.
With SQPY the enrichment ratio was ≤ 0.25.
With KVMH the enrichment ratio was ≤ 0.25.
For HARQ, the enrichment ratio was ≤ 0.25.
THEM was tested, and the enrichment ratio was ≤ 0.25.
With VMDM the enrichment ratio was ≤ 0.25.
For TKLA, the enrichment ratio was 4.75.
For QQMT, the enrichment ratio was ≤ 0.25.
With HRMI the enrichment ratio was ≤ 0.25.
With SYIM the enrichment ratio was ≤ 0.25.
In the case of ANKG, the enrichment ratio is reported as ≤ 0.25.
In the case of YISW, the enrichment ratio is reported as 0.368.
VDHL was tested, and the enrichment ratio was ≤ 0.25.
EDHS was tested, and the enrichment ratio was ≤ 0.25.
For TKPC, the enrichment ratio was ≤ 0.25.
VAGF was tested, and the enrichment ratio was ≤ 0.25.
With KPCA the enrichment ratio was ≤ 0.25.
With LHAL the enrichment ratio was ≤ 0.25.
AHQY was tested, and the enrichment ratio was ≤ 0.25.
With HGGR the enrichment ratio was ≤ 0.25.
With ESIC the enrichment ratio was ≤ 0.25.
For RWIA, the enrichment ratio was ≤ 0.25.
PQLC was tested, and the enrichment ratio was ≤ 0.25.
IRDR was tested, and the enrichment ratio was ≤ 0.25.
In the case of HILC, the enrichment ratio is reported as ≤ 0.25.
For AIFM, the enrichment ratio was ≤ 0.25.
For NPIC, the enrichment ratio was ≤ 0.25.
